Reference: the RNAGym collection of RNA variant scans (doi:10.1073/pnas.2313332121)
This sample is rich in variants without activity.

B1: TPR 5TU (parent)
chain: GGAUCUUCUCGAUCUAACAAAAAAGACAAAUCUGCCACAAAGCUUGAGAGCAUCUUCGGAUGCAGAGGCGGCAGCCUUCGGUGGCGCGAUAGCGCCAACGUUCUCAACUAUGACACGCAAAACGCGUGCUCCGUUGAAUGGAGUUUAUCAUG

Variants of: B1
Assay: polymerase ribozyme fitness, log enrichment relative to wild type (log ratio); higher = more active; in vitro selection for triplet polymerase activity
How it was run: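 PCR was used to build mutant libraries for each subunit of a heterodimeric triplet polymerase ribozyme, which were then transcribed. A single in vitro selection round, in triplicate, used a frozen incubation at −7 °C and recovered extended constructs by gel excision, streptavidin beads and RT-PCR. Fitness is the logarithm of genotype enrichment relative to wild-type enrichment, averaged over replicates with inverse-variance weights. The logarithm is base 2, and after Illumina sequencing only genotypes with ≥10 input reads and ≥1 read per output were kept.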

Row | Variant | polymerase ribozyme fitness (log ratio)
1 | C96U U101C A142C | -1.82
2 | C96A G140U | -3.47
3 | G94U C108U | -3.54
4 | A98G U101C G141U | 0.851
5 | C96A A97G | -0.635
6 | C103A A120C G124A U134A | -3.66
7 | G100U A106C | ≤ -4.2
8 | A107U A120G C132A A147C | ≤ -4.2
9 | C105U C132A U148G | ≤ -4.2
10 | C114U U151G | -4.08
11 | C114U U151C | ≤ -4.2
12 | A115G G124C C132G A137U | ≤ -4.2
13 | U102G C103G G117U G128U G141U | ≤ -4.2
14 | C96G G143C | -2.86
15 | C99U U104G | -1.84
16 | C96G A110G | -3.11
17 | C96G A120G | -2
18 | C103A U109G | -3.53
19 | C105A A113U | ≤ -4.2
20 | A98G A120G | -0.401
21 | C103A | -1.23
22 | C103U | -0.357
23 | C103G | -1.4
24 | C96U G143A | -0.236

Row | Variant | polymerase ribozyme fitness (log ratio)
25 | C114G G124C | -4.13
26 | C105G A120U | -0.931
27 | C96G A115G C123A A147U | -0.404
28 | C99A C118G A119C | -0.582
29 | A107C A110G A121G | ≤ -4.2
30 | A106G U109C G117U A120C U139C | ≤ -4.2
31 | A97G U130G | -2.77
32 | C114A G140A U148G | ≤ -4.2
33 | A97G U101G | 0.358
34 | A119C | -0.385
35 | C114A C149G | ≤ -4.2
36 | U102G G152U | ≤ -4.2
37 | U102C A150C | -4.08
38 | C96A G124U | -0.674
39 | A113G U148A | -4.05
40 | C95U U111G | ≤ -4.2
41 | C116G A119U | 0.403
42 | C114G C125A G140U G143C | ≤ -4.2
43 | A106U C108A | ≤ -4.2
44 | U101G G133U | -2.8
45 | U101G U134A U144C A150U | -4.09
46 | C96A A115C | -0.888
47 | C96A A115U | -2.29
48 | C103G U135A | -2.27

Row | Variant | polymerase ribozyme fitness (log ratio)
49 | C116U A122U | -0.326
50 | A98U U134G | -2.65
51 | C96A U151C | -3.24
52 | C96A U151G | ≤ -4.2
53 | C118A A119U | -0.617
54 | A106G C116U U148C | -1.25
55 | A97G G143A | -1.44
56 | A115U C118A G143U U145G | ≤ -4.2
57 | C96U A119U G152C | -3.13
58 | C116A U148C | -3.09
59 | C118U A142G U148C | -2.86
60 | G117U | -0.0156
61 | G117C | 0.422
62 | G117A | 0.231
63 | G100A A107U | ≤ -4.2
64 | C99U G100U | ≤ -4.2
65 | C108U G140U | ≤ -4.2
66 | A113G U134A | ≤ -4.2
67 | C105U A107G A119G U144A | ≤ -4.2
68 | U102G A121U | -2.32
69 | C99U G136A | 0.0423
70 | C103G A138G | -3.66
71 | U101A C105U C114A | -3.17
72 | A113C C118A | ≤ -4.2

Row | Variant | polymerase ribozyme fitness (log ratio)
73 | A106C A113C G140C U151C | ≤ -4.2
74 | U104A G140A A142C | ≤ -4.2
75 | C118U A120G G143C | -2.13
76 | U109A U151A | ≤ -4.2
77 | C96A A142U | -1.24
78 | U104C G124U C125A G143U | -3.85
79 | C96A C103G | -2.53
80 | C96U C131G | -2.66
81 | U101G G128U U144G | -4
82 | G100A A137G | ≤ -4.2
83 | C105U C131A C149G | ≤ -4.2
84 | A107U A115G | -4.16
85 | C103G A121G | -1.32
86 | A115C G133U | -3.74
87 | C96U U139A | -3.94
88 | C103U A115G | -1.14
89 | C99U U104A U109C A115G | -3.79
90 | U102G G136U A137U C149G | ≤ -4.2
91 | G112A G133A | ≤ -4.2
92 | C116U G141U | 1.29
93 | C96U A107C | -3.14
94 | A110G G140U | ≤ -4.2
95 | C99A A106U C132G | ≤ -4.2
96 | C99G U102G U135A | ≤ -4.2

Row | Variant | polymerase ribozyme fitness (log ratio)
97 | G94U G141C U144G | -1.83
98 | U102G A142U | -3.35
99 | A107U U109G | ≤ -4.2
100 | U104A A137C | -3.89
101 | U104C C105G | ≤ -4.2
102 | C103A A150G | -4.09
103 | C99U A107U | -3.88
104 | A97U U148C | -1.51
105 | C105U U109C A138G | ≤ -4.2
106 | C116U A142U | -0.344
107 | C99G U134C | -0.713
108 | G112A A122G A137G | ≤ -4.2
109 | C114U A147C | -2.83
110 | C95G C96U | -2.05
111 | A107G C131A | -4.19
112 | C96G C99G | ≤ -4.2
113 | A98U A147C | 0.168
114 | C95U G141U | 0.762
115 | C105A | -0.411
116 | C105U | 0.527
117 | C105G | -0.829
118 | C96A A137U | -3.87
119 | C99A A107G A110C | ≤ -4.2
120 | C108G G136A A147C | ≤ -4.2

Row | Variant | polymerase ribozyme fitness (log ratio)
121 | C96A A97G G126U G140U | ≤ -4.2
122 | C103G C123G G136U | -2.77
123 | C99G C118U U148A | ≤ -4.2
124 | G100U U139G U146G | ≤ -4.2
125 | C99A U102G | ≤ -4.2
126 | C95U A97U C99U G133U A150G | ≤ -4.2
127 | C99A U146A | -1.15
128 | C99A U146G | -1.41
129 | C95U A98G | -1.9
130 | A106G C118U | 0.261
131 | C116A G140U | -4.02
132 | G100C | -3.72
133 | G100A | -3.76
134 | G100U | -2.58
135 | C105U G140A | -2.92
136 | A107U C118G A147U C149G U151G | ≤ -4.2
137 | C96U A138U | ≤ -4.2
138 | C118G A119U G141U | -0.349
139 | A97U G152A | -2.62
140 | C116G G140C | -3.81
141 | A107G A121U | -4.18
142 | C103G G117U | -0.61
143 | U109G C118A C125G | -3.62
144 | A97C C103G C114G | -3.86

Row | Variant | polymerase ribozyme fitness (log ratio)
145 | C96U A119U | -0.778
146 | C95A C96A U102G U144A | ≤ -4.2
147 | C95U U104G | -2.11
148 | C103U U139A | -3.96
149 | C96G U130C | 0.873
150 | C103A A107U U134A | ≤ -4.2
151 | U101G A115G C149G | ≤ -4.2
152 | C96A C105U | 0.343
153 | C96A C105G | -1.4
154 | C114U G124C | -4.11
155 | C96G C114U | -2.18
156 | C99G C118G U134G U135A G136U U148C | ≤ -4.2
157 | A115U U134G U135G | ≤ -4.2
158 | C99G U144A U148A | ≤ -4.2
159 | C99A C103G A119G | ≤ -4.2
160 | C95U C149A | ≤ -4.2
161 | C96G U102A U109C | ≤ -4.2
162 | C99G G126A | -0.619
163 | A98U C105U | 0.54
164 | A110C G136U | ≤ -4.2
165 | U109G C118G U144A | -3.88
166 | A97G A98U | -0.253
167 | C96G C105G G143A | -3.02
